Test results: PubChem BioAssay AID720709 (National Center for Advancing Translational Sciences (NCATS), 2013)
Out of some 360,000 compounds screened, about 520 (0.14%) were called active. This list was built around the results that the source calls inconclusive (neither active nor inactive); the mix of calls is not that of the screen. Calls come from the whole dose curve; as a rule, active = well fitted inhibition curve with a large enough effect; inconclusive = small, poorly fitted or top-dose-only effect; inactive = no such curve, though single readings can be large or run the other way. Potencies of inconclusive entries are left out as doubtful fits.

target: Rap guanine nucleotide exchange factor 3 (Homo sapiens) (UniProt O95398); experiment: qHTS for Antagonist of cAMP-regulated guanine nucleotide exchange factor 3 (EPAC1): primary screen; conditions: EPAC1 GEF assay, Rap1b-BODIPY-GDP exchange fluorescence; activity change, negative = inhibition: at 115 µM (top of the series); note: nearly all actives have a fitted effect of over 50% in size;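 for activity change, negative = inhibition: plate controls were vehicle for no effect and positive control for full effect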
Potency is the fitted concentration of half-maximal effect; tags give direction and shape of the fitted curve.

Chain of UniProt O95398 (O95398 whole entry, looked up): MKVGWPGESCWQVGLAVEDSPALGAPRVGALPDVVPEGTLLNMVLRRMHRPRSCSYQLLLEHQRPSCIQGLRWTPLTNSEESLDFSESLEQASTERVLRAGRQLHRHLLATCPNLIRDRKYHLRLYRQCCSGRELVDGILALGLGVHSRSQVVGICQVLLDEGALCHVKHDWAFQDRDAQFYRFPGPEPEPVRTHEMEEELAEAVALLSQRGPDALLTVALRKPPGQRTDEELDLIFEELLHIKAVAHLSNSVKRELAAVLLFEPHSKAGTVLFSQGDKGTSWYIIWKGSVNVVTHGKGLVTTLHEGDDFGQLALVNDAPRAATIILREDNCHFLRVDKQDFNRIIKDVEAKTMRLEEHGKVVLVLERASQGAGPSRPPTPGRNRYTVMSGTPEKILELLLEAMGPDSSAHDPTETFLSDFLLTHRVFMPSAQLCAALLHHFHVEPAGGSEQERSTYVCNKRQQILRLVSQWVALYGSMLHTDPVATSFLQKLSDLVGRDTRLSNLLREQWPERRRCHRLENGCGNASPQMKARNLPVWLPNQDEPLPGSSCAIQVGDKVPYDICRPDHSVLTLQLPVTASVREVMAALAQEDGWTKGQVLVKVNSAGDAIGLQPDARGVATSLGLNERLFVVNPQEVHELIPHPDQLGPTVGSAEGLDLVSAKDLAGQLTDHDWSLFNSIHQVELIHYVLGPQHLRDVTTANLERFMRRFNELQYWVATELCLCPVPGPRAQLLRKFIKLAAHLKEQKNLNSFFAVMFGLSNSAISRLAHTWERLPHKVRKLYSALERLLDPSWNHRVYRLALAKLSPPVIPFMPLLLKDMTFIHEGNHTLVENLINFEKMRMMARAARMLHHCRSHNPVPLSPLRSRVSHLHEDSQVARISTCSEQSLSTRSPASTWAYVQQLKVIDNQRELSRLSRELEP

Compound	Potency	activity change, negative = inhibition
CCCn1nc(NC(=O)c2cccs2)c2cc3cc(C)ccc3nc21	inconclusive [inhibitor, full curve, poor fit]	–
O=c1[nH]c(/C=C/c2ccccc2Cl)c([N+](=O)[O-])c(=O)[nH]1	inconclusive [inhibitor, partial curve]	–
COc1ccc(C2C(C#N)=C(N)Oc3cc(O)ccc32)cc1Cl (stereo unspecified)	inconclusive [inhibitor, single point]	–
CCOc1ccccc1C(=O)NC(C(=O)OCn1nnc2ccccc2c1=O)C(C)C (stereo unspecified)	–	inactive: 13.5%
COC(=O)Cn1c(CN2CCc3ccccc3C2)nc2c1c(=O)n(C)c(=O)n2C	inconclusive [inhibitor, single point]	–
Cc1cc(NC(=S)N(CCN2CCOCC2)Cc2ccccc2F)ccc1Cl	inconclusive [inhibitor, partial curve]	–
CS(=O)(=O)c1nc(-c2ccccc2)cc(C(F)(F)F)n1	inconclusive [inhibitor, partial curve]	–
O=C(O)c1ccccc1Nc1cc(Cl)c2nonc2c1[N+](=O)[O-]	–	inconclusive: -31.9% [inhibitor]
O=C(CSc1ccsc1[N+](=O)[O-])N1CCN(c2ccccc2)CC1	inconclusive [inhibitor, single point]	–
CCOC(=O)c1c(C)[nH]c(C(=O)C(C)Sc2ccc(Cl)cc2)c1C (stereo unspecified)	–	inactive: -9.19%
NC(=O)CSc1nc2cc(Cl)ccc2c(=O)n1C1CCCCC1	inconclusive [inhibitor, full curve]	–
CN(C)c1ccc(Cc2cc3c(O)ccc(O)c3cc(Cc3ccc(N(C)C)cc3)c2=O)cc1	active: 50.1 µM	–
CCOc1cc(CNn2cn[nH]c2=S)cc(Cl)c1OCc1ccccc1F	inconclusive [inhibitor, full curve, poor fit]	–
O=C(CSc1ncccc1-c1nc2ccccc2[nH]1)NCc1ccco1	–	inactive: 0.483%
CCOC(=O)C1Nc2ccc(C(F)(F)F)cc2C2C=CCC12 (stereo unspecified)	inconclusive [inhibitor, partial curve]	–
C=CC[n+]1ccc(/C=C2\C=Cc3cc(C)ccc3N2CC)c2ccccc21	inconclusive [inhibitor, full curve, poor fit]	–
COc1ccc(CN2CCNC(=O)C2CC(=O)NC2CC(C)(C)CC(C)(C)C2)cc1OC (stereo unspecified)	inconclusive [inhibitor, single point]	–
O=C1C(=O)c2ccc(-c3ccccc3)cc2-c2ccccc21	inconclusive [inhibitor, full curve]	–
COc1ccccc1OC(=O)CCc1nc2ccccc2s1	–	inactive: -20.5%
Nc1nc(N)c2ncc(C(=O)CCc3ccccc3)nc2n1	inconclusive [inhibitor, partial curve]	–
CCC/C=C1/CCCOC(C(=O)NCc2ccccc2)(C(F)(F)F)C1 (stereo unspecified)	inconclusive [inhibitor, full curve]	–
N=C(N)c1ccc(Cl)cc1	–	inconclusive: -16.8% [inhibitor]

Compound	Potency	activity change, negative = inhibition
Cc1ccc(CN2C(=O)[C@H]3Cc4c([nH]c5ccccc45)C(C)(C)N3C2=O)cc1	inconclusive [inhibitor, partial curve]	–
CC(C)(C)C(=O)NCCCc1nc2ccccc2n1CCCOc1ccc(Cl)cc1	inconclusive [inhibitor, partial curve]	–
O=C(Cc1ccc(S(=O)(=O)N2CCOCC2)s1)Nc1cc(Cl)ccc1Cl	inconclusive [inhibitor, single point]	–
COc1c(N)c2c(c([N+](=O)[O-])c1OC)C(=O)OC2	inconclusive [inhibitor, single point]	–
Cn1cccc1-c1nc2ccc([N+](=O)[O-])cc2[nH]1	inconclusive [inhibitor, full curve, poor fit]	–
Cc1ccc(C(=O)NNC2=NC(C)(C)Cc3ccccc32)cc1	inconclusive [inhibitor, single point]	–
CCCCn1c(SCC(=O)c2c(N)n(C3CC3)c(=O)[nH]c2=O)nc2cc(S(N)(=O)=O)ccc21	–	inactive: -0.825%
CCN(CC)c1ccc(CNc2nc3ccccc3n2CCN2CCOCC2)cc1	–	inactive: -23.9%
C(=N\Nc1nc2ccccc2[nH]1)/c1ccc2c(c1)OCO2	–	inactive: -7.87%
C=CCOc1cccc(C2C(C(=O)c3ccc(C)o3)=C(O)C(=O)N2c2nccs2)c1 (stereo unspecified)	inconclusive [inhibitor, single point]	–
Cc1ccc2c(c1)/C(=C/c1ccc(F)cc1)C(=O)N2	inconclusive [inhibitor, partial curve, poor fit]	–
CCCc1cc(=O)oc2cc(C)c(CN3CCCC3)c(O)c12	inconclusive [inhibitor, partial curve]	–
O=C(N1CCOCC1)N1CCN(S(=O)(=O)N2CCOCC2)CC1	inconclusive [inhibitor, single point]	–
CCn1nc(C(=O)OCC(=O)N2c3ccccc3CC2C)c2ccccc2c1=O (stereo unspecified)	inconclusive [inhibitor, partial curve, poor fit]	–
Cc1ccc(Nc2nc(N3CCOCC3)c3ccccc3n2)cc1	inconclusive [inhibitor, partial curve]	–
Cc1cc(/C=N/Nc2ccc([N+](=O)[O-])cn2)c(C)n1-c1ccc(C(=O)O)cc1	inconclusive [inhibitor, full curve]	–
CC1=C(c2ccccc2)C(=S)NC(C)(C)C1	inconclusive [inhibitor, full curve, poor fit]	–
COc1cc2c(C(=O)N(C)c3ccc(F)cc3)cn(C)c(=O)c2cc1OC	–	inconclusive: 7.52% [inhibitor]
CCOC(=O)C1CCN(C(=O)c2ccc3c(=O)n4nc(Nc5ccccc5OC)sc4nc3c2)CC1	–	inactive: -4.81%
Cc1cc(NS(=O)(=O)c2ccc(NS(=O)(=O)c3cc(C)c(Cl)cc3Cl)cc2)no1	inconclusive [inhibitor, single point]	–
Cc1ccc(SCC(=O)Nc2ccc(F)cc2[N+](=O)[O-])cc1C	inconclusive [inhibitor, partial curve]	–
COC(=O)[C@@]12C[C@@H](CC(=O)NCc3cccc(C(F)(F)F)c3)C(=O)N(Cc3ccco3)C1=CCC(C)(C)C2	–	inactive: -20.9%

Compound	Potency	activity change, negative = inhibition
COc1cc(S(=O)(=O)N2CCN(c3ccccc3F)CC2)c(OC)cc1Cl	inconclusive [inhibitor, single point]	–
C=CCN(c1ccc(C(=O)Nc2ccc3c(c2)OCO3)cc1)S(C)(=O)=O	–	inactive: -20.1%
COc1ccc(Br)cc1CNC(=O)C1CCN(C(=O)N(C)C)CC1	inconclusive [inhibitor, partial curve, poor fit]	–
CC(=O)c1c(C)[nH]c(C(=O)OCc2nnc(-c3ccc([N+](=O)[O-])cc3)o2)c1C	inconclusive [inhibitor, partial curve]	–
O=C(NCCS(=O)(=O)c1ccc(Br)cc1)c1ccc(Cl)cc1	inconclusive [inhibitor, full curve, poor fit]	–
O=C(C(=O)N1CCN(c2ccccc2F)CC1)c1c[nH]c2ccccc12	inconclusive [inhibitor, full curve, poor fit]	–
O=C1C(Cl)=C(Nc2cccc(O)c2)C(=O)N1Cc1ccccc1	inconclusive [inhibitor, partial curve, poor fit]	–
COCCC(=O)N1CCC(Oc2ccc(C(=O)N3CCCCCCC3)cc2)CC1	inconclusive [inhibitor, full curve, poor fit]	–
Cc1ccc(CCNS(=O)(=O)c2ccc3c(c2)C(C)(C)C(=O)N3C)cc1	–	inconclusive: -9.57% [inhibitor]
CCOC(=O)C(=C1Nc2ccccc2N1)n1c(-c2cccnc2)nc2ccccc21	–	inactive: -9.87%
CCOc1ccccc1CN1CCN(Cc2nc3ccccc3s2)CC1CCO (stereo unspecified)	–	inconclusive: -6% [inhibitor]
COc1ccc(/C=C/C(=O)C2CC2)cc1COc1c(C)cccc1C	inconclusive [inhibitor, partial curve]	–
c1ccc2nc(-c3ccc(-n4ccnc4)cc3)ccc2c1	inconclusive [inhibitor, partial curve]	–
Cc1cc(C(=O)c2ccc(C(C)(C)C)cc2)c(NC(=O)CCl)s1	inconclusive [inhibitor, full curve]	–
COc1ccc2[nH]c(=O)c(CN(CC3CCCO3)C(=S)Nc3ccc(C)cc3)cc2c1 (stereo unspecified)	inconclusive [inhibitor, single point]	–
Cc1cn(CCC(=O)Nc2ccc(N3CCOCC3)cc2)c2ccccc12	inconclusive [inhibitor, full curve, poor fit]	–
COc1ccc(OCC(=O)Nc2ccc3c(c2)nc(CCN2CCCCC2)n3C)cc1	–	inactive: -2.81%
Oc1ccc(/C=N/N2CCCCC2)c(O)c1O	–	inactive: -26.9%
CCc1cccc(NC(=O)c2ccc(Cn3nc(C)cc3C)o2)c1	inconclusive [inhibitor, partial curve]	–
COc1cccc(C(=O)Oc2ccc(/C=N/Nc3ccc(C(=O)O)cc3)cc2OC)c1	inconclusive [inhibitor, partial curve]	–
COc1ccc(CNc2nc(-c3cccnc3)nn2S(C)(=O)=O)cc1	–	inactive: -18.2%
Cc1cccc(-n2c(O)c(C=Nc3ccccc3O)c3ccccc3c2=O)n1	inconclusive [inhibitor, partial curve]	–
